# In PubChem BioAssay AID485341 (National Center for Advancing Translational Sciences (NCATS), 2010):
# The campaign covered roughly 330,000 compounds. About 1,700 (0.52%) were called active. The inconclusive results got no clear call from the source; some entries with a clear call stand among them for comparison. The call rests on the fitted dose curve; in most records, active means well fitted inhibition curve with a large enough effect; inconclusive means small, poorly fitted or top-dose-only effect; inactive means no such curve, though single readings can be large or run the other way. Potencies of inconclusive entries are doubtful fits and often do not repeat.
# Target: Beta-lactamase (Escherichia coli (strain K12)) (UniProt P00811)
# Experiment: qHTS Inhibitors of AmpC Beta-Lactamase (assay without detergent); further: nearly all actives have a fitted effect of over 20% in size
# Conditions: AmpC nitrocefin hydrolysis, absorbance 480 nm, 0.0001% Triton; series mostly up to 57.1 µM
# Procedure, shortened: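 AmpC (5.3 nM in the dispensed reagent) in 20 mM phosphate pH 7.0 with 0.01% (detergent screen) or 0.0001% Triton X-100 was preincubated with compounds for 15 min at room temperature. Nitrocefin was then added from an 800 uM solution, and hydrolysis was followed at 480 nm.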
# Potency means the concentration at half of the fitted maximal effect; tags describe the fitted curve by direction and shape.
# Chain of UniProt P00811 (P00811 whole entry, looked up): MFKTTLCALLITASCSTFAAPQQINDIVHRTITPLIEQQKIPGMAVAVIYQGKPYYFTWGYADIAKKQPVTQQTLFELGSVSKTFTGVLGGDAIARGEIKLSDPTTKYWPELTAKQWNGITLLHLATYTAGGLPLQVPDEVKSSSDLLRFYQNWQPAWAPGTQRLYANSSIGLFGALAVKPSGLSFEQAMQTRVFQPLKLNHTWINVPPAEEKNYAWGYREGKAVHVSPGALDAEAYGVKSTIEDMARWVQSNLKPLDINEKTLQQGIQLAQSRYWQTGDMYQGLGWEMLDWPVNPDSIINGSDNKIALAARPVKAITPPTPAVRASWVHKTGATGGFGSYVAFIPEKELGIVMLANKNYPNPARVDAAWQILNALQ
row,SMILES,Potency
1,O=C1c2cc(Br)ccc2N(Cc2ccc(Br)cc2)S(=O)(=O)C1c1cc(Cl)c(Cl)cc1[N+](=O)[O-] (stereo not drawn),active: 2 µM
2,COc1ccc(CNCC(O)(c2ccccc2)c2ccc(F)cc2)cc1 (stereo not drawn),inactive
3,O=C(Nc1cccc(-c2csc(Nc3ccccc3)n2)c1)c1cc([N+](=O)[O-])cc(C(F)(F)F)c1,"inconclusive: 8.91 µM [inhibitor, full curve, poor fit]"
4,Cc1nc(SCC(=O)N2CCN(c3ccccc3)CC2)c2oc3ccccc3c2n1,inactive
5,CCC(C)c1ccc(O)c(NC(=O)c2cncc(Br)c2)c1 (stereo not drawn),"inconclusive: 5.01 µM [inhibitor, single point]"
6,Cc1nc(NC(=O)c2ccc(Cl)cc2)sc1-c1csc(Nc2cccc(F)c2)n1,"inconclusive: 31.6 µM [inhibitor, partial curve]"
7,CC(=O)N1CCN(C(=O)COc2ccc3oc4c(c3c2)CCCC4)CC1,"inconclusive: 39.8 µM [inhibitor, single point]"
8,CC1CCN(c2nc3c(c(=O)[nH]c(=O)n3C)n2CCSc2nc3ccccc3o2)CC1,"inconclusive: 6.31 µM [inhibitor, single point]"
9,O=C(Nc1ccccc1)Nc1nnc(-c2cccs2)s1,inactive
10,COC(=O)c1ccc(C(NC(=O)OCc2ccccc2)/C(F)=C/[C@@H](C)C(=O)NCc2ccc(-c3ccccc3)cc2)cc1 (stereo partly drawn),"inconclusive: 11.2 µM [inhibitor, partial curve]"
11,CCn1c(C(Cc2ccccc2)NC(=O)COC)nc2ccccc21 (stereo not drawn),"inconclusive: 11.2 µM [inhibitor, partial curve, poor fit]"
12,COc1ccccc1N1N=C(c2cccs2)CC1c1ccccc1 (stereo not drawn),"inconclusive: 1 µM [inhibitor, full curve, poor fit]"
13,CCCCON1C(=O)c2cccc3cccc(c23)C1=O,inactive
14,COc1ccc(C(=O)NCCc2cn3ccc(C)cc3n2)cc1,"inconclusive: 50.1 µM [inhibitor, partial curve, poor fit]"
15,CCN(CC(=O)N1CCN(Cc2ccccc2)CC1)S(=O)(=O)c1ccc(C)cc1,inactive
16,Cc1nc(CS(=O)(=O)c2ccccc2)cc(Sc2ccccc2Cl)n1,"inconclusive: 0.141 µM [inhibitor, full curve, poor fit]"
17,O=[N+]([O-])c1ccc(N2CCNCC2)c2ncccc12,"inconclusive: 1.26 µM [inhibitor, partial curve, poor fit]"
18,COc1ccc(-c2c(-c3ccc4c(c3)OCO4)noc2C)cn1,"inconclusive: 39.8 µM [inhibitor, single point]"
19,Cc1ccc(S(=O)(=O)C2(C(=O)Nc3ccc4c(c3)OCO4)CC2)cc1,"inconclusive: 11.2 µM [inhibitor, full curve, poor fit]"
20,Cc1ccc(-c2csc(C3=C(O)CN(NC(=O)c4ccc([N+](=O)[O-])cc4)C3=N)n2)cc1,"inconclusive: 3.55 µM [inhibitor, full curve, poor fit]"
21,CCOC(=O)COc1ccc(S(=O)(=O)N2CCc3ccccc3C2)cc1,"inconclusive: 0.891 µM [inhibitor, partial curve, poor fit]"
22,O=C(N/N=C/c1cccc(NC(=O)c2ccc(Cl)cc2)c1)c1cccc(O)c1,"inconclusive: 7.08 µM [inhibitor, partial curve]"

row,SMILES,Potency
1,Cc1ccc(NS(=O)(=O)c2ccc(OCC(=O)Nc3cccc([N+](=O)[O-])c3)c(C)c2)cc1,"inconclusive: 3.98 µM [inhibitor, full curve, poor fit]"
2,Cc1ccccc1Oc1ncccc1C(=O)/C(C#N)=C/N(C)C,"inconclusive: 0.158 µM [inhibitor, full curve, poor fit]"
3,CN(C)C(CNC(=O)c1ccc(NS(=O)(=O)c2ccc(F)c(F)c2)cc1)c1ccccc1 (stereo not drawn),inactive
4,CC(C)(C)n1nnnc1CN(Cc1ccco1)Cc1cc2cc3c(cc2[nH]c1=O)OCO3,"inconclusive: 3.16 µM [inhibitor, full curve, poor fit]"
5,O=C(Nc1cc(Sc2ccccn2)cc([N+](=O)[O-])c1)c1ccc([N+](=O)[O-])cc1,"inconclusive: 35.5 µM [inhibitor, single point]"
6,O=C(NN=Cc1ccc(O)cc1O)c1ccccc1NS(=O)(=O)c1cccs1,inactive
7,CCn1cnc2sc(C(=O)Oc3cccc(C)c3)c(C)c2c1=O,inactive
8,COc1ccc(-n2nnnc2SCC(=O)N2CCOCC2)cc1,active: 0.891 µM
9,Fc1ccc(Nc2ccnc(Nc3ccc(F)cc3)n2)cc1,"inconclusive: 31.6 µM [inhibitor, partial curve]"
10,Cc1ccc(C(=O)Nn2c(C)nc3ccccc3c2=O)cc1C,inactive
11,Cc1cc(=O)oc2cc(OCc3ccc(C(=O)OCC(=O)Nc4ccccc4OC(F)F)cc3)ccc12,active: 22.4 µM
12,CCOC(=O)c1sc(N=NC2=C(O)CCCC2=O)c(C(=O)OCC)c1C,"inconclusive: 15.8 µM [inhibitor, partial curve]"
13,CCOc1ccc(OCc2ccc(C(=O)NCC3CCCO3)o2)cc1 (stereo not drawn),"inconclusive: 4.47 µM [inhibitor, single point]"
14,C#CCOc1ccc(Br)cc1/C=N/O,inactive
15,O=C(Nn1c(O)c(C=C2N=c3ccccc3=N2)sc1=S)c1cccc(Cl)c1,"inconclusive: 39.8 µM [inhibitor, single point]"
16,CCOc1ccc(-c2cccc(NC(=O)c3cccs3)c2)nn1,"inconclusive: 35.5 µM [inhibitor, single point]"
17,COC(=O)c1cc(=O)n(Cc2ccc(OC)c(OC)c2)c(=Nc2ccc(F)cc2)s1,inactive
18,Cc1cccc(N2CCN(C(=O)C(Cc3ccccc3)n3cccc3)CC2)c1C (stereo not drawn),active: 1 µM
19,CCOC(=O)N1CCC(c2cc(=O)n3[nH]cc(C(=O)OC)c3n2)CC1,active: 7.94 µM
20,NC(=O)Nc1ccc(C(=O)OCC(=O)Nc2ccc(Cl)cc2C(=O)c2ccccc2)cc1,"inconclusive: 12.6 µM [inhibitor, partial curve]"
21,Cc1c(/C=N/NC(=O)CNc2ccccc2)c2ccccn2c1C(=O)c1ccc(Cl)cc1,active: 2.51 µM
